Laboratory results from PMC12136788.
The other results are listed elsewhere or left out.

B1: chr3:49886901:49887562:-|three_prime_utr|ENSG00000164078|control|control|control (ssRNA)
RNA: GGGAGUUCUACAGUCCGACGAUCCCAAGUGAUGCAGCAAUGCUGGGAGGCAGACCCAGCAGUGCGACCCACCUUCAGAGUACUAGUGGGGGAGGUGGAGCAGAUAGUGUCUGCACUGCUUGGGGACCAUUAUGUGCAGCUGCCCAACAGAGGAUUGAGCAUCA
B2: chr15:75657416:75657517:+|3pUTR|ENSG00000173548|msi1|total|mutant (ssRNA)
RNA: GGGAGUUCUACAGUCCGACGAUCCAUGGGUGCCCCUGGGAAAUUCCCCACUCCUCCGAAGUGGGGCACAGCAGGGGUGAGAACCGAGUCAGGAGCCCUCGAGGCCAAGGCCUGGGCUGCCGGUCAGUCAGUGAAGGUCAGGCCCAACAGAGGAUUGAGCAUCA
B3: chr2:167954955:167954998:-|3pUTR|ENSG00000198648|msi1_unk|FALSE|overlapping (ssRNA)
RNA: GGGAGUUCUACAGUCCGACGAUCGUUGUAUUUAGAAAUUAAUAUACUUAUAAAAUUAAGAUUUAUUAGCCAAACUUGAAUUCUAGUUUUAAAACUGACUGUGAAUUUUAUUUUUCAUAUAUUUAUGCAUUACACACCUUAGCUCAACAGAGGAUUGAGCAUCA
B4: chr12:1788447:1788559:+|3pUTR|ENSG00000006831|unk|total|mutant (ssRNA)
RNA: GGGAGUUCUACAGUCCGACGAUCUUUCUUUUUUGGCCCCCGGCUGGUUGGGACCUCUACAGCUUCAUUCUUUCACCAUUAAACCGUGGCCUUUUUCAGUAUUUUCCCUCUUCCCCUUUAUAAAUUAUGCUAAAGCCACAAAGCCAACAGAGGAUUGAGCAUCA
B5: ENSG00000124766:be:win_2001|3pUTR|ENSG00000124766|bound_else_gene|NA|bound_elsewhere_windowed (ssRNA)
RNA: GGGAGUUCUACAGUCCGACGAUCAUUUGGCCGAUGGCAGAUGUUUUGGGGGAACGCCGGGACUGAGAGACUCCACGCAGGCGAAUUCCCGUUUGGGGCUUUUUUUUCCUCCCUCUUUUCCCCUUGCCCCCUCUGCAGCCGGAGCAACAGAGGAUUGAGCAUCA
B6: chr2:240466480:240466663:+|3pUTR|ENSG00000063660|msi1|FALSE|unique (ssRNA)
RNA: GGGAGUUCUACAGUCCGACGAUCGGAGCCAGUGUGCCCAAAAGCCAUGUAUUUCAGGGACCUCAGGGGCACCUCCGGCUGCCUAGCCCUCCCCCCAGCUCCCUGCACCGCCGCAGAAGCAGCCCCUCGAGGCCUACAGAGGAGCAACAGAGGAUUGAGCAUCA
B7: ENSG00000164985:stop:overlap|stop_codon|ENSG00000164985|stop_codon|NA|stop_codon (ssRNA)
RNA: GGGAGUUCUACAGUCCGACGAUCAGCCAUCCAGUGAAGAGAGAGAGACUGAAAUAUCUCUGAAGGAUUCUACACUAGAUAACUAGGUUGACAUACCUGGAAUAUAGAGAACACUUGAGAAGUUUGUAAUGGUUUUCAUUUGAACAACAGAGGAUUGAGCAUCA
B8: chr13:79312715:79312816:-|3pUTR|ENSG00000139746|unk|FALSE|unique (ssRNA)
RNA: GGGAGUUCUACAGUCCGACGAUCCCUUGUGAUUUAUUAUAAUGUAGCAGCAUACUUAUAAAAGUGGUCUGUGCUGAGUCAGAUAGAGAGCCCAGCCCAUUAGAAACACAUCAUAAUUUAAGAAUAUGAUGCAGAAUGCCCUUACAACAGAGGAUUGAGCAUCA
B9: chr1:37709127:37709197:+|3pUTR|ENSG00000134690|msi1_unk|total|mutant (ssRNA)
RNA: GGGAGUUCUACAGUCCGACGAUCUGAAGACCAAAUACUGGUUUGGAGACAACUUCCAUGUCUUGCUCUUCUACCUCCCCCGUCCGUGGAAAUUUGGAUAAGGGAACUGCCGGGCCCAGAUUCUGGAGGUUUUAUGUCAUUGGCCAACAGAGGAUUGAGCAUCA
B10: chr6:43186014:43186115:+|CDS|ENSG00000112659|msi1|total|mutant (ssRNA)
RNA: GGGAGUUCUACAGUCCGACGAUCCUGCUUUUCUCCUUGGUGAAGCGCUACCUUUGUGUCACGUCCCUCCUGGAUCAGCUGAACCGCAGUCCAGAGCUGGGAGCUGGAGACCAAAGCUCCCCAUGUGCCACAAGAGAGAAAAGCCAACAGAGGAUUGAGCAUCA
B11: chr10:128104542:128104643:-|CDS|ENSG00000148773|msi1|FALSE|unique (ssRNA)
RNA: GGGAGUUCUACAGUCCGACGAUCAAGUGAUGAGAAAAAUAUCAACACAUUUGUGGAAACUCCAGUGCAGAAACUGGACCUGCUAGGAAAUUUACCUGGCAGCAAGAGACAGCCACAGACUCCUAAGGAAAAGGCUGAGGCUCUCAACAGAGGAUUGAGCAUCA
B12: chr17:58308540:58309380:-|CDS|ENSG00000005379|control|control|control (ssRNA)
RNA: GGGAGUUCUACAGUCCGACGAUCCAUCAGCAUCACCAGCUCCUGCUACCCUGGAGAUGGGGAGGCCUGGGGCACAGCAACUGUAGGAAGGCCCAGGGGGCCUCCGAAGGCCAAUUCAGGCCCCAAGCCCUACCCACGCCUCCCCAACAGAGGAUUGAGCAUCA
B13: chr15:64682558:64682659:+|3pUTR|ENSG00000180357|unk|total|mutant (ssRNA)
RNA: GGGAGUUCUACAGUCCGACGAUCCACACUGGUCUUGCCUCUUCUUUUCCACUGCUUGGCUCUUAAGCCUCAGGCAGAUAAACCCGUAUUCCCCCCAGCUUGGGGAACCUUGGAGUCUGCCAGGUCACCUCCGGGCAAGGCCCACAACAGAGGAUUGAGCAUCA
B14: chr2:190062223:190062596:-|CDS|ENSG00000138379|control|control|control (ssRNA)
RNA: GGGAGUUCUACAGUCCGACGAUCGGAAAAAGAGGGGCUGUGUAAUGCAUGUACUUGGAGACAAAACACUAAAUCUUCAAGAAUAGAAGCCAUUAAGAUACAAAUCCUCAGUAAACUUCGUCUGGAAACAGCUCCUAACAUCAGCAACAGAGGAUUGAGCAUCA
B15: chr2:73958838:73958951:+|3pUTR|ENSG00000114956|unk|FALSE|unique (ssRNA)
RNA: GGGAGUUCUACAGUCCGACGAUCCCAGCCCCUCUCAUCCCUGGAGCACUCUGCCGCUCAAGAGCUGGUUUGUUAAUUAUUGUUAGACUUUGCCAUUGUUUUCUUUUGUACCUGAAGCAUUUUGAAAAUAAAGUUUACUUAAGUCAACAGAGGAUUGAGCAUCA
B16: chr3:13816257:13818943:-|three_prime_utr|ENSG00000154764|control|control|control (ssRNA)
RNA: GGGAGUUCUACAGUCCGACGAUCGAAUUCUUCCACCUCGUCGGGAUCCGUUUUCUGCAAUCAAAGUGGACUGCUUGCUUUCCUAGCAGGAUGAUUUUGUUGCUAGGACAAGGAGCCGUGUAGAAGUGUACAUAACUAUUCUUUCAACAGAGGAUUGAGCAUCA
B17: chr20:45097661:45098695:-|CDS|ENSG00000124134|control|control|control (ssRNA)
RNA: GGGAGUUCUACAGUCCGACGAUCGCACGUGCUCGACGAGCUGUGCGUCUUCGCCUUUGGCCAGGAGGCCGACUACUGGGGCCUAGGCGAGAACGCGCUUGCCGCGUGCUGCCGCGCGCGCUACCUGGAGAGGCGGCUGACCCACAACAGAGGAUUGAGCAUCA
B18: chr12:100626600:100626701:+|3pUTR|ENSG00000139354|unk|FALSE|unique (ssRNA)
RNA: GGGAGUUCUACAGUCCGACGAUCAAUUUUAUCAUCAAGUAUUCCCUUAUAAAACCAAGUAACACUUCUUUAUCAGUAACUUUUAGAACUUAAAAGAAAGCAAAAAGUAAAUGGAAUUGUAGGCAAUUUAUGAAUCCUAGUAGACAACAGAGGAUUGAGCAUCA
B19: ENSG00000107863:be:win_551|CDS|ENSG00000107863|bound_else_gene|NA|bound_elsewhere_windowed (ssRNA)
RNA: GGGAGUUCUACAGUCCGACGAUCAAGGCAACGAAGCUUAUAGCGGCAAUGCCCGCAAUAUACCUGAACCUCCACCAAUCUGCUAUCCCUGGCUGCCAUCUGCCCCAUCAGCCAUGGCACAGCCAGUUGAAAUAUCUCCUCCUGCAACAGAGGAUUGAGCAUCA
B20: chr3:98585547:98585662:-|CDS|ENSG00000080819|unk|total|mutant (ssRNA)
RNA: GGGAGUUCUACAGUCCGACGAUCUCCAUUUGAUCCCUGGUUUGGCGCCGCUGUGUUUUCCAGGUGUGAUGAUUACUUCUUUACCGCCCAUCGUGGAGAACGGCGGGGCAUUGGUGGUAUCUUUUUUGAUGAUCUUGACUCUCCCAACAGAGGAUUGAGCAUCA
B21: ENSG00000107863:be:win_2351|CDS|ENSG00000107863|bound_else_gene|NA|bound_elsewhere_windowed (ssRNA)
RNA: GGGAGUUCUACAGUCCGACGAUCAAAGAAUGGAGGAAAGAAAAGCCUCGAGUACCAGUCCGCCUGGCGAUUCUUUGGCUUCCAUCCCAUUUAUAGAUGAACCAACUAGCCCUAGCAUUGAUCAUGAUAUUGCACAUAUCCCUGCAACAGAGGAUUGAGCAUCA
B22: chr9:124811826:124811928:+|3pUTR|ENSG00000185585|msi1|total|mutant (ssRNA)
RNA: GGGAGUUCUACAGUCCGACGAUCAAGAAAUUUUCCCGCCCAACUCCCUGUUUCAUGAAAGAGAAAAGAGGCUCAGAAAAGUUCCGAGAGCAGCUCAGUGUCACACUGGGAGCUGGGCACAGCCGAUCUCCUUCCAGAAGGGUUCAACAGAGGAUUGAGCAUCA

What follows are binders tested against MSI1 full-length (mouse, UniProt Q61474 1-362) (assay: nsRBNS (natural sequence RNA bind-n-seq); RBNS binding buffer (assumed for nsRBNS): 25 mM Tris pH 7.5, 150 mM KCl, 3 mM MgCl2, 0.01% Triton X-100, 500 ug/ml BSA, 20 U/ml SUPERase-In, 4 C; UNK is unkempt and MSI1 is Musashi-1; names of the RNAs are library labels; protein concentration not given here; high values mean tight binding).
Sequence of UniProt Q61474 (Q61474 whole entry): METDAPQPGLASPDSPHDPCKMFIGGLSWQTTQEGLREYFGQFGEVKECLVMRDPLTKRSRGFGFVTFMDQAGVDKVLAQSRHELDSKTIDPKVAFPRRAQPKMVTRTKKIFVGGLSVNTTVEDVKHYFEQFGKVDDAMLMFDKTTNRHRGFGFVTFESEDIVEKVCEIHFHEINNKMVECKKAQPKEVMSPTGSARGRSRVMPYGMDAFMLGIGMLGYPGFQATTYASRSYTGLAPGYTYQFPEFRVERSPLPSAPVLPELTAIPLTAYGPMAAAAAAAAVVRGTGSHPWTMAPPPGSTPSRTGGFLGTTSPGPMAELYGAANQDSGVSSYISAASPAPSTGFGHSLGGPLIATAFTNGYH

| Binder | binding signal |
| --- | --- |
| B1 | 1.17 enrichment R |
| B2 | 0.249 enrichment R |
| B3 | 9.9 enrichment R |
| B4 | 0.933 enrichment R |
| B5 | 0.608 enrichment R |
| B6 | 0.472 enrichment R |
| B7 | 3.63 enrichment R |
| B8 | 17.8 enrichment R |
| B9 | 0.379 enrichment R |
| B10 | 0.337 enrichment R |
| B11 | 0.382 enrichment R |
| B12 | 0.354 enrichment R |
| B13 | 0.364 enrichment R |
| B14 | 0.318 enrichment R |
| B15 | 1.4 enrichment R |
| B16 | 0.286 enrichment R |
| B17 | 0.341 enrichment R |
| B18 | 11.4 enrichment R |
| B19 | 0.51 enrichment R |
| B20 | 0.293 enrichment R |
| B21 | 2.35 enrichment R |
| B22 | 0.374 enrichment R |
